We go through 22 cell lines from the supplement of paper PMC4967469.

By IC50 is meant the dose at which the fit gives 50% viability; a limit (>, <) means that the fit lies beyond the doses tested. AUC sums up the same curve from the lowest dose to the 256-fold higher top dose: 1 means no effect, lower means more sensitive. A top dose marked as inferred was derived from the fitted curves, not read from the paper. For part of these data: An entry number marks a drug with two screens in the source, which often give different values.

Compound in the first assay: Cc1ccc(-n2nc(C(C)(C)C)cc2NC(=O)Nc2ccc(OCCN3CCOCC3)c3ccccc23)cc1 [BIRB 0796]
As to the kind of experiment: Viability of human cancer cell lines after 72 h of drug (GDSC screen). The following applies: top dose 10 µM; top dose inferred. The protocol:
(§1)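 Human cancer cell lines in 384-well plates, medium with 10% serum, drug for 72 h over a 256-fold dose range (nine 2-fold or five 4-fold steps up to the top dose). Adherent lines were fixed and stained with the nucleic acid dye Syto60, suspension lines read with resazurin; signal relative to control wells, capped at 0 and 100%. One two-parameter sigmoid per drug and line, fitted in a mixed model over all curves with the slope shared within a line.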
SF539 (glioma, adherent): the AUC was determined as 0.986 and the half-inhibitory concentration (IC50) is > 10 µM.

Compound in the next assay: O=C(c1cc(Cc2n[nH]c(=O)c3ccccc23)ccc1F)N1CCN(C(=O)C2CC2)CC1 [Olaparib]
The description is as above. Particulars: top dose 5 µM; screen: GDSC drug entry 1017; top dose inferred. The procedure: as §1
For the cell line “NCI-H2081 (small cell lung carcinoma, suspension)”, the AUC turned out to be 0.96 and the concentration for half-maximal inhibition (IC50) was > 5 µM.

Regarding “NCI-H2135 (non-small cell lung carcinoma, adherent)”, the AUC was found to be 0.99 and the concentration for half-maximal inhibition (IC50) was > 5 µM.

Turning to NCI-SNU-1 (stomach, suspension), the AUC is 0.972 and the IC50 was > 5 µM.

For the cell line “NKM-1 (acute myeloid leukaemia, suspension)”, the AUC was 0.853 and the concentration for half-maximal inhibition (IC50) came out at 4.08 µM.

For the cell line “OCI-AML2 (acute myeloid leukaemia, suspension)”, the AUC came out at 0.956 and the IC50 was > 5 µM.

For “OCI-M1 (acute myeloid leukaemia, suspension)”, the AUC was 0.993 and the 50% inhibitory concentration (IC50) is > 5 µM.

OMC-1 (cervix, adherent): the AUC came to 0.988 and the IC50 is > 5 µM.

Regarding OPM-2 (myeloma, suspension), the AUC amounted to 0.994 and the IC50 is > 5 µM.

In the case of “P30-OHK (lymphoblastic leukaemia, suspension)”, the AUC is 0.972 and the concentration for half-maximal inhibition (IC50) is > 5 µM.

With “P31-FUJ (acute myeloid leukaemia, suspension)”, the AUC amounted to 0.981 and the IC50 is > 5 µM.

With P32-ISH (Burkitt lymphoma, suspension), the AUC amounted to 0.995 and the IC50 was > 5 µM.

In the case of “PF-382 (T-cell lymphoblastic leukaemia, suspension)”, the AUC amounted to 0.976 and the IC50 was > 5 µM.

For the cell line PSN1 (pancreas, adherent), the AUC is 0.973 and the half-inhibitory concentration (IC50) was > 5 µM.

Turning to RCC10RGB (kidney, adherent), the AUC was found to be 0.968 and the half-inhibitory concentration (IC50) was > 5 µM.

Take REH (B-cell leukaemia, suspension): the AUC turned out to be 0.979 and the IC50 was > 5 µM.

Consider RF-48 (stomach, adherent), for which the AUC is 0.964 and the 50% inhibitory concentration (IC50) was > 5 µM.

Consider ROS-50 (B-cell leukaemia, suspension), for which the AUC came out at 0.969 and the concentration for half-maximal inhibition (IC50) was > 5 µM.

Consider “RPMI-6666 (Hodgkin lymphoma, suspension)”, for which the AUC was 0.954 and the IC50 was > 5 µM.

Raji (Burkitt lymphoma, suspension): the AUC came out at 0.985 and the concentration for half-maximal inhibition (IC50) was > 5 µM.

As for “Ramos-2G6-4C10 (Burkitt lymphoma, suspension)”, the AUC worked out at 0.934 and the IC50 is > 5 µM.

For the cell line SCH (stomach, adherent), the AUC stood at 0.953 and the concentration for half-maximal inhibition (IC50) is > 5 µM.

As to SF539 (glioma, adherent), the AUC worked out at 0.931 and the IC50 is > 5 µM.

Staying with this assay, now noted: top dose 10 µM; screen: GDSC drug entry 1495.
“NCI-H2081 (small cell lung carcinoma, suspension)”: the AUC was 0.946 and the IC50 was > 10 µM.

As to “NCI-H2135 (non-small cell lung carcinoma, adherent)”, the AUC was determined as 0.99 and the concentration for half-maximal inhibition (IC50) was > 10 µM.

On to NCI-SNU-1 (stomach, suspension), for which the AUC came out at 0.966 and the IC50 was > 10 µM.

Consider “NKM-1 (acute myeloid leukaemia, suspension)”, for which the AUC stood at 0.836 and the IC50 was found to be 6.89 µM.

In the case of “OCI-AML2 (acute myeloid leukaemia, suspension)”, the AUC was found to be 0.854 and the concentration for half-maximal inhibition (IC50) turned out to be 4.96 µM.

Take “OCI-M1 (acute myeloid leukaemia, suspension)”: the AUC was determined as 0.984 and the IC50 is > 10 µM.

With OMC-1 (cervix, adherent), the AUC is 0.969 and the IC50 was > 10 µM.

As to OPM-2 (myeloma, suspension), the AUC was determined as 0.973 and the IC50 is > 10 µM.

For “P30-OHK (lymphoblastic leukaemia, suspension)”, the AUC was 0.814 and the concentration for half-maximal inhibition (IC50) was determined as 4.33 µM.

Consider “P31-FUJ (acute myeloid leukaemia, suspension)”, for which the AUC worked out at 0.982 and the IC50 is > 10 µM.

For the cell line P32-ISH (Burkitt lymphoma, suspension), the AUC amounted to 0.987 and the IC50 is > 10 µM.

As to “PF-382 (T-cell lymphoblastic leukaemia, suspension)”, the AUC was 0.981 and the IC50 is > 10 µM.

Turning to PSN1 (pancreas, adherent), the AUC stood at 0.937 and the IC50 was > 10 µM.

Take RCC10RGB (kidney, adherent): the AUC stood at 0.948 and the IC50 was > 10 µM.

For REH (B-cell leukaemia, suspension), the AUC amounted to 0.894 and the IC50 is > 10 µM.

In the case of RF-48 (stomach, adherent), the AUC came to 0.979 and the IC50 was > 10 µM.

Consider ROS-50 (B-cell leukaemia, suspension), for which the AUC came out at 0.966 and the half-inhibitory concentration (IC50) is > 10 µM.

For “RPMI-6666 (Hodgkin lymphoma, suspension)”, the AUC worked out at 0.938 and the IC50 was > 10 µM.

Take Raji (Burkitt lymphoma, suspension): the AUC was 0.964 and the IC50 was > 10 µM.

Take “Ramos-2G6-4C10 (Burkitt lymphoma, suspension)”: the AUC came to 0.99 and the concentration for half-maximal inhibition (IC50) was > 10 µM.

For SCH (stomach, adherent), the AUC was 0.827 and the concentration for half-maximal inhibition (IC50) was 6.78 µM.

Turning to SF539 (glioma, adherent), the AUC turned out to be 0.896 and the IC50 is > 10 µM.

Compound in another assay: O=C1NC(=O)c2c1c(-c1ccccc1Cl)cc1[nH]c3ccc(O)cc3c21 [Wee1 inhibitor 681640]
Described as above. The following applies: top dose 2 µM; top dose inferred. The protocol: as §1
“NCI-H2081 (small cell lung carcinoma, suspension)”: the AUC was determined as 0.986 and the IC50 is > 2 µM.

Turning to “NCI-H2135 (non-small cell lung carcinoma, adherent)”, the AUC was 0.973 and the IC50 was > 2 µM.

With NCI-SNU-1 (stomach, suspension), the AUC worked out at 0.984 and the half-inhibitory concentration (IC50) is > 2 µM.

“NKM-1 (acute myeloid leukaemia, suspension)”: the AUC is 0.957 and the IC50 is > 2 µM.

As for “OCI-AML2 (acute myeloid leukaemia, suspension)”, the AUC is 0.995 and the IC50 was > 2 µM.

Consider “OCI-M1 (acute myeloid leukaemia, suspension)”, for which the AUC is 0.986 and the half-inhibitory concentration (IC50) was > 2 µM.

Turning to OMC-1 (cervix, adherent), the AUC came out at 0.969 and the IC50 is > 2 µM.

Regarding OPM-2 (myeloma, suspension), the AUC worked out at 0.993 and the IC50 is > 2 µM.

On to “P30-OHK (lymphoblastic leukaemia, suspension)”, for which the AUC was found to be 0.947 and the half-inhibitory concentration (IC50) was > 2 µM.

As to “P31-FUJ (acute myeloid leukaemia, suspension)”, the AUC came out at 0.995 and the IC50 is > 2 µM.

On to P32-ISH (Burkitt lymphoma, suspension), for which the AUC is 0.994 and the IC50 was > 2 µM.

Turning to “PF-382 (T-cell lymphoblastic leukaemia, suspension)”, the AUC came to 0.986 and the 50% inhibitory concentration (IC50) was > 2 µM.

Consider PSN1 (pancreas, adherent), for which the AUC came to 0.942 and the IC50 was > 2 µM.

Consider RCC10RGB (kidney, adherent), for which the AUC was found to be 0.857 and the IC50 was > 2 µM.

As for REH (B-cell leukaemia, suspension), the AUC was 0.95 and the IC50 was > 2 µM.

In the case of RF-48 (stomach, adherent), the AUC worked out at 0.981 and the IC50 is > 2 µM.

Regarding ROS-50 (B-cell leukaemia, suspension), the AUC stood at 0.973 and the IC50 was > 2 µM.

As to “RPMI-6666 (Hodgkin lymphoma, suspension)”, the AUC was determined as 0.965 and the IC50 is > 2 µM.

With Raji (Burkitt lymphoma, suspension), the AUC amounted to 0.987 and the IC50 is > 2 µM.

For the cell line “Ramos-2G6-4C10 (Burkitt lymphoma, suspension)”, the AUC was 0.964 and the IC50 was > 2 µM.

In the case of SCH (stomach, adherent), the AUC is 0.923 and the IC50 is > 2 µM.
